Test results from a compilation of properties of binary mixtures (doi:10.1021/je400097b).
Some of these densities may be calculated back from excess volumes.

Experiment: xn = mol fraction of the nth substance listed
Settings: 101 kPa

O + CC[NH+](C)CC.O=S(=O)([O-])C(F)(F)F
Settings	mass density [kg/m3]
353.15 K, x1 = 1	970.1

CC[NH+](C)CC.O=S(=O)([O-])C(F)(F)F + O
mass density [kg/m3]
Settings	x2 = 0.037	x2 = 0.434	x2 = 0.586	x2 = 0.759	x2 = 0.844	x2 = 0.925	x2 = 0.972
293.15 K	1294.1	1278	1259.2	–	1195.9	1135	1062.8
313.15 K	–	1261.5	1243.3	1211.9	1180.8	1122	1053
333.15 K	1261.4	–	1227.3	–	–	1107.7	1041.1
353.15 K	1245.5	–	1210.6	–	1147.3	1091	1027.3
